{
  "source": "patent US11434289B2",
  "about": "“Anti-GPR20 antibody and anti-GPR20 antibody-drug conjugate” (DAIICHI SANKYO COMPANY, LIMITED, priority 2017, dated 2022)",
  "molecules": {"B1": {"name": "antibody-drug conjugate (4): antibody-drug conjugate produced from h046-H4b/L7, larger batch; n 7.4 by common procedure F (conjugate)", "heavy": "QVQLVQSGAEVKKPGASVKVSCKASGYTFTSYYISWIRQAPGQGLKYMGFINPGSGHTNYNEKFKGRVTITADKSSSTATMELSSLRSEDTAVYYCARGAGGFLRIITKFDYWGQGTLVTVSSASTKGPSVFPLAPSSKSTSGGTAALGCLVKDYFPEPVTVSWNSGALTSGVHTFPAVLQSSGLYSLSSVVTVPSSSLGTQTYICNVNHKPSNTKVDKRV[letters of human IgG1 Fc omitted]", "light": "DTQLTQSPSSLSASVGDRVTITCRASKSVSTYIHWYQQKPGKQPKLLIYSAGNLESGVPSRFSGSGSGTDFTLTISSLQPEDFANYYCQQINELPYTFGQGTKVEIKRTVAAPSVFIFPPSDEQLKSGTASVVCLLNNFYPREAKVQWKVDNALQSGNSQESVTEQDSKDSTYSLSSTLTLSKADYEKHKVYACEVTHQGLSSPVTKSFNRGEC"}, "B2": {"name": "antibody-drug conjugate (13): antibody-drug conjugate produced from h046-H4e/L7; n 7.7 by common procedure F (conjugate)", "heavy": "B1 heavy with Q1E", "light": "B1 light"}, "B3": {"name": "antibody-drug conjugate (1): antibody-drug conjugate produced from human chimeric antibody 04-046Ch; average number of conjugated drug molecules 5.6 (conjugate)", "heavy": "QVQLQQSGAELAKPGSSVKISCKASGYTFTSYYISWIKQTTGQGLKYIGFINPGSGHTNYNEKFKGKATLTVDKSSSTAFMQLSSLTPDDSAIYYCARGAGGFLRIITKFDYWGQGVMVTVSSASTKGPSVFPLAPSSKSTSGGTAALGCLVKDYFPEPVTVSWNSGALTSGVHTFPAVLQSSGLYSLSSVVTVPSSSLGTQTYICNVNHKPSNTKVDKRV[letters of human IgG1 Fc omitted]", "light": "DTVLTQSPALAVSLGQRVTISCRASKSVSTYIHWYQQRSGQQPKLLIYSASNLESGVPSRFSGSGSGTDFTLTIDPVEPDDIANYYCQQINELPYTFGAGTKLELKRAVAAPSVFIFPPSDEQLKSGTASVVCLLNNFYPREAKVQWKVDNALQSGNSQESVTEQDSKDSTYSLSSTLTLSKADYEKHKVYACEVTHQGLSSPVTKSFNRGEC"}, "B4": {"name": "antibody-drug conjugate (7): antibody-drug conjugate produced from h046-H4b/L7; n 7.6 by common procedure F (conjugate)", "heavy": "B1 heavy", "light": "B1 light"}, "B5": {"name": "antibody-drug conjugate (8): antibody-drug conjugate produced from h046-H5b/L2; n 7.7 by common procedure F (conjugate)", "heavy": "B1 heavy with T80N", "light": "B1 light with T2I, L4M, G52S, N85T"}, "B6": {"name": "antibody-drug conjugate (9): antibody-drug conjugate produced from h046-Hwt/L6; n 7.4 by common procedure F (conjugate)", "heavy": "B3 heavy", "light": "B1 light with G52S, N53D, L54R"}, "B7": {"name": "antibody-drug conjugate (2): antibody-drug conjugate produced from 04-046Ch; average number of conjugated drug molecules 5.6 (conjugate)", "heavy": "B3 heavy", "light": "B3 light"}, "B8": {"name": "antibody-drug conjugate (14): antibody-drug conjugate produced from h046-H4e/L7; n 7.6 by common procedure F (conjugate)", "heavy": "B1 heavy with Q1E", "light": "B1 light"}},
  "key": {"human GPR20": {"biological_target": "T1, human GPR20 (Homo sapiens, UniProt Q99678)", "T1 construct": "expressed in transfected cells; host or cells: 293T cells, transient, Lipofectamine 2000", "T1 sequence (Q99678 1-358)": "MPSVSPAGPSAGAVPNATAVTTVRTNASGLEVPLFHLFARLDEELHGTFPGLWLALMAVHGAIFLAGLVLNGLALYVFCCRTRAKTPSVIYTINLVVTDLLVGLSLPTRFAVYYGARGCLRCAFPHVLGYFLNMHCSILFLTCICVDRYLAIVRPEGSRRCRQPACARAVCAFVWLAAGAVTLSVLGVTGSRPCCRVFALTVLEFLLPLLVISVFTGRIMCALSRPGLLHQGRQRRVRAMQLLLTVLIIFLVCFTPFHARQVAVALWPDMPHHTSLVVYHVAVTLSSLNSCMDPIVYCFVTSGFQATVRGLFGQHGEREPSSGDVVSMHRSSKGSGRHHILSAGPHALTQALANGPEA", "experiment": "Binding activity of humanized anti-GPR20 antibodies and antibody-drug conjugates by flow cytometry", "conditions": "293T cells transfected with pcDNA3.1-hGPR20; FIG. 25"}, "GIST020": {"test_system": "GIST020", "experiment": "Antitumor effect in subcutaneously GIST020-transplanted nude mouse models", "format": "in vivo, BALB/c nude mice", "conditions": "10 mg/kg intravenously on Days 55 and 75; compared with control group; FIG. 33"}, "GIST-T1/GPR20 cells [1]": {"test_system": "GIST-T1/GPR20 cells", "experiment": "Antitumor effect in subcutaneously GIST-T1/GPR20 cell-transplanted nude mouse models", "format": "in vivo, BALB/c nude mice"}, "GIST1": {"test_system": "GIST1", "experiment": "Antitumor effect in subcutaneously GIST1-transplanted nude mouse models", "format": "in vivo, BALB/c nude mice", "conditions": "3 or 10 mg/kg intravenously on Days 38 and 59; compared with control group; FIG. 34"}, "GIST-T1/GPR20 cells [2]": {"test_system": "GIST-T1/GPR20 cells", "experiment": "In vitro cell proliferation-suppressive activity of ADC (CellTiter-Glo)", "format": "cell-based, human", "conditions": "0.032 to 100 nM, culture for 7 to 11 days; FIG. 26, FIG. 27"}, "[3]": {"test_system": "human gastrointestinal stromal tumor cell line GIST430", "experiment": "Antitumor effect in subcutaneously GIST430 cell-transplanted nude mouse models", "format": "in vivo, BALB/c nude mice", "conditions": "10 mg/kg intravenously on Days 29, 36 and 43; compared with control group; FIG. 29"}, "[4]": {"test_system": "stomach cancer cell line NCI-N87", "experiment": "Antitumor effect in subcutaneously NCI-N87 cell-transplanted nude mouse models (no GPR20 expression)", "format": "in vivo, BALB/c nude mice", "conditions": "3 or 10 mg/kg intravenously on Day 6; FIG. 35"}, "GIST074": {"test_system": "GIST074", "experiment": "Antitumor effect in subcutaneously GIST074-transplanted nude mouse models (regorafenib-unresponsive patient tumor)", "format": "in vivo, BALB/c nude mice", "conditions": "10 mg/kg intravenously on Days 29 and 50; FIG. 36", "procedure": "The antitumor effects of the antibody-drug conjugates were evaluated using animal models derived from immunodeficient mice by the transplantation of human gastrointestinal stromal tumor-derived cells. Five- to 6-week-old female BALB/c nude mice (CAnN.Cg-Foxnlnu/CrlCrlj, Charles River Laboratories Japan Inc.) were acclimatized for 4 to 7 days under SPF conditions before use in the experiment. The mice were fed with a sterilized solid diet (FR-2, Funabashi Farms Co., Ltd) and given sterilized tap water (which had been prepared by adding a 5 to 15 ppm sodium hypochlorite solution to tap water). The longest diameter and the shortest diameter of the transplanted tumor were measured once or twice a week using electronic digital calipers (CD-15CX, Mitutoyo Corp.), and the volume of the tumor was then calculated according to the following equation. Tumor volume (mm^3)=½×Longest diameter (mm)×[Shortest diameter (mm)]^2\n[…] ABS buffer was administered in the same manner as above to a control group (vehicle group). Five or six mice per group were used in the experiment. […]"}, "[5]": {"conditions": "10 mg/kg intravenously on Day 14, FIG. 28"}},
  "note": "Positions count from the first letter of the chain named.",
  "data": [
    {"molecule": "B1", "values": [
      {"measurement": "amount of the antibody bound based on MFI", "setting": "human GPR20", "value": "increased in a concentration-dependent manner"},
      {"measurement": "tumor volume", "setting": "GIST020", "value": "remarkably decreased tumor volume"}
    ]},
    {"molecule": "B2", "values": [
      {"measurement": "amount of the antibody bound based on MFI", "setting": "human GPR20", "value": "increased in a concentration-dependent manner"},
      {"measurement": "tumor volume", "setting": "GIST-T1/GPR20 cells [1]; 0.3, 1, or 3 mg/kg intravenously on Day 17, FIG. 32", "value": "decreased tumor volume in a dose-dependent manner"},
      {"measurement": "dose effective for tumor regression", "setting": "GIST-T1/GPR20 cells [1]; single intravenous dose on Day 17, FIG. 32", "value": "≥ 1", "unit": "mg/kg"},
      {"measurement": "tumor volume", "setting": "GIST020", "value": "remarkably decreased tumor volume"},
      {"measurement": "tumor volume", "setting": "GIST1", "value": "remarkably decreased tumor volume"}
    ]},
    {"molecule": "B3", "values": [
      {"measurement": "cell proliferation-suppressive activity (number of live cells, ATP)", "setting": "GIST-T1/GPR20 cells [2]", "value": "concentration-dependent cell proliferation-suppressive activity"},
      {"measurement": "tumor volume", "setting": "GIST-T1/GPR20 cells [1]; [5]", "value": "remarkably decreased tumor volume"},
      {"measurement": "tumor volume", "setting": "[3]", "value": "remarkably decreased tumor volume"}
    ]},
    {"molecule": "B4", "values": [
      {"measurement": "cell proliferation-suppressive activity (number of live cells, ATP)", "setting": "GIST-T1/GPR20 cells [2]", "value": "concentration-dependent cell proliferation-suppressive activity"}
    ]},
    {"molecule": "B5", "values": [
      {"measurement": "cell proliferation-suppressive activity (number of live cells, ATP)", "setting": "GIST-T1/GPR20 cells [2]", "value": "concentration-dependent cell proliferation-suppressive activity"}
    ]},
    {"molecule": "B6", "values": [
      {"measurement": "cell proliferation-suppressive activity (number of live cells, ATP)", "setting": "GIST-T1/GPR20 cells [2]", "value": "concentration-dependent cell proliferation-suppressive activity"},
      {"measurement": "tumor volume", "setting": "GIST-T1/GPR20 cells [1]; 10 mg/kg intravenously on Day 24, FIG. 30", "value": "remarkably decreased tumor volume"}
    ]},
    {"molecule": "B7", "values": [
      {"measurement": "tumor volume", "setting": "GIST-T1/GPR20 cells [1]; [5]", "value": "remarkably decreased tumor volume"},
      {"measurement": "tumor volume", "setting": "[3]", "value": "remarkably decreased tumor volume"}
    ]},
    {"molecule": "B8", "values": [
      {"measurement": "tumor growth-suppressive effect", "setting": "[4]", "value": "no significant tumor growth-suppressive effect"},
      {"measurement": "tumor growth", "setting": "GIST074", "value": "completely suppressed tumor growth"}
    ]}
  ]
}
